This passage reports IC50 results from patent US11618753B2 (priority 2018, dated 2023).

The test system of the test is MLKL phosphorylation, HT29-L23 human colorectal adenocarcinoma cells. Put plainly: cells. As to conditions: read-out: pMLKL HCS Cell Assay (IC50, uM).
Take `COc1ncc(-c2cc(C(F)(F)F)c3c(N)ncnn23)cc1C(=O)NC1CN(Cc2cncc(F)c2)CC1F` (racemic) [Example 230, 5-[4-amino-5-(trifluoromethyl)pyrrolo[2,1-f][1,2,4]triazin-7-yl]-N-{4-fluoro-1-[(5-fluoropyridin-3-yl)methyl]pyrrolidin-3-yl}-2-methoxypyridine-3-carboxamide]: the IC50 was 0.015 µM.
For `COc1ncc(-c2cc(C(F)(F)F)c3c(N)ncnn23)cc1C(=O)N[C@@H]1CN(S(=O)(=O)Cc2cc(F)ccc2F)C[C@@H]1F` [Example 1489, 5-[4-amino-5-(trifluoromethyl)pyrrolo[2,1-f][1,2,4]triazin-7-yl]-N-[(3R,4S)-1-[(2,5-difluorophenyl)methanesulfonyl]-4-fluoropyrrolidin-3-yl]-2-methoxypyridine-3-carboxamide], the IC50 came to 0.022 µM.
In the case of `Nc1ncnn2c(-c3cc(C(=O)N[C@@H]4CN(C(=O)C5CCC(F)(F)CC5)C[C@@H]4F)c(Cl)cc3F)cc(C(F)(F)F)c12` [Example 407, 5-[4-amino-5-(trifluoromethyl)pyrrolo[2,1-f][1,2,4]triazin-7-yl]-2-chloro-N-[(3R,4S)-1-(4,4-difluorocyclohexanecarbonyl)-4-fluoropyrrolidin-3-yl]-4-fluorobenzamide], the IC50 is 0.015 µM.
On to `COc1ncc(-c2cc(C(F)(F)F)c3c(N)ncnn23)cc1C(=O)NC1CCCC(c2ccccc2)C1` (stereo not drawn) [Example 1689, 5-(4-amino-5-(trifluoromethyl)pyrrolo[2,1-f][1,2,4]triazin-7-yl)-2-methoxy-N-(3-phenylcyclohexyl)nicotinamide], for which the IC50 was 0.01 µM.
Regarding `COCCNc1ncnn2c(-c3cnc(OC)c(C(=O)Nc4cnn(Cc5ccccc5)c4)c3)ccc12` [Example 56, N-(1-benzyl-1H-pyrazol-4-yl)-2-methoxy-5-(4-((2-methoxyethyl)amino)pyrrolo[2,1-f][1,2,4]triazin-7-yl)nicotinamide], the IC50 was found to be 0.076 µM.
On to `Cc1nc(C)c(-c2cc(C(F)(F)F)c3c(N)ncnn23)cc1C(=O)N[C@@H]1CN(C(=O)C2CC2(F)F)C[C@@H]1F` (stereo partly drawn) [Example 525, 5-[4-amino-5-(trifluoromethyl)pyrrolo[2,1-f][1,2,4]triazin-7-yl]-N-[(3R,4S)-1-(2,2-difluorocyclopropanecarbonyl)-4-fluoropyrrolidin-3-yl]-2,6-dimethylpyridine-3-carboxamide], for which the IC50 worked out at 0.14 µM.
Regarding `CCC(O)(C(=O)N1C[C@H](F)[C@H](NC(=O)c2cc(-c3cc(CN4CCC(F)(F)CC4)c4c(N)ncnn34)cnc2OC)C1)C(F)(F)F` (stereo partly drawn) [Example 1625, 5-{4-amino-5-[(4,4-difluoropiperidin-1-yl)methyl]pyrrolo[2,1-f][1,2,4]triazin-7-yl}-N-[(3R,4S)-4-fluoro-1-[2-hydroxy-2-(trifluoromethyl)butanoyl]pyrrolidin-3-yl]-2-methoxypyridine-3-carboxamide], the IC50 was found to be 0.0011 µM.
With `COc1ncc(-c2cc(C(F)(F)F)c3c(N)ncnn23)cc1C(=O)Nc1nc(C(=O)NC(C)C)co1` [Example 1302, 5-[4-amino-5-(trifluoromethyl)pyrrolo-[2,1-f][1,2,4]triazin-7-yl]-2-methoxy-N-{4-[(propan-2-yl)carbamoyl]-1,3-oxazol-2-yl}pyridine-3-carboxamide], the IC50 came out at 0.356 µM.
Turning to `Nc1ncnn2c(-c3cc(C(=O)N[C@@H]4CN(C(=O)C5(F)CCC5)C[C@@H]4F)c(F)cc3Cl)cc(C(F)(F)F)c12` [Example 521, 5-[4-amino-5-(trifluoromethyl)pyrrolo[2,1-f][1,2,4]triazin-7-yl]-4-chloro-2-fluoro-N-[(3R,4S)-4-fluoro-1-(1-fluorocyclobutanecarbonyl)pyrrolidin-3-yl]benzamide], the IC50 was 0.044 µM.
Next, `COc1ncc(-c2cc(CN3CCC(F)(F)CC3)c3c(N)ncnn23)cc1C(=O)NC1CN(C(=O)OC(C)C(F)(F)F)C[C@@H]1F` (stereo partly drawn) [Example 1504, 1,1,1-trifluoropropan-2-yl (3R,4S)-3-(5-{4-amino-5-[(4,4-difluoropiperidin-1-yl)methyl]pyrrolo[2,1-f][1,2,4]triazin-7-yl}-2-methoxypyridine-3-amido)-4-fluoropyrrolidine-1-carboxylate]: 0.01 µM; `CC(C)(C(=O)N1C[C@H](F)[C@H](NC(=O)c2cc(-c3cc(CN4CC(F)(F)C4)c4c(N)ncnn34)c(F)cc2Cl)C1)C(F)(F)F` [Example 1308, 5-{4-amino-5-[(3,3-difluoroazetidin-1-yl)methyl]pyrrolo[2,1-f][1,2,4]triazin-7-yl}-2-chloro-4-fluoro-N-[(3R,4S)-4-fluoro-1-(3,3,3-trifluoro-2,2-dimethyl-propanoyl)pyrrolidin-3-yl]benzamide]: 0.0014 µM.
Next, `COCCn1cncc1CN1CC(F)C(NC(=O)c2cc(-c3cc(C(F)(F)F)c4c(N)ncnn34)cnc2OC)C1` (racemic) [Example 223, 5-[4-amino-5-(trifluoromethyl)pyrrolo[2,1-f][1,2,4]triazin-7-yl]-N-(4-fluoro-1-{[1-(2-methoxyethyl)-1H-imidazol-5-yl]methyl}pyrrolidin-3-yl)-2-methoxypyridine-3-carboxamide]: 0.412 µM.
Consider `Cc1cc(F)c(-c2cc(C(F)(F)F)c3c(N)ncnn23)cc1C(=O)N[C@@H]1CN(C(=O)c2cccc(F)c2F)C[C@@H]1F` [Example 836, 5-[4-amino-5-(trifluoromethyl)pyrrolo[2,1-f][1,2,4]triazin-7-yl]-N-[(3R,4S)-1-(2,3-difluorobenzoyl)-4-fluoropyrrolidin-3-yl]-4-fluoro-2-methylbenzamide], for which the IC50 turned out to be 0.0052 µM.
As to `Cc1ncc(-c2cc(C(F)(F)F)c3c(N)ncnn23)cc1C(=O)Nc1ccn(C(c2ccccc2)C(F)(F)F)n1` (stereo not drawn) [Example 1816, 5-(4-amino-5-(trifluoromethyl)pyrrolo[2,1-f][1,2,4]triazin-7-yl)-2-methyl-N-(1-(2,2,2-trifluoro-1-phenylethyl)-1H-pyrazol-3-yl)nicotinamide], the IC50 was 0.0056 µM.
With `Cc1nc(C)c(-c2cc(C(F)(F)F)c3c(N)ncnn23)cc1C(=O)N[C@@H]1CN(C(=O)C(C)(C)F)C[C@@H]1F` [Example 1183, 5-[4-amino-5-(trifluoromethyl)pyrrolo[2,1-f][1,2,4]triazin-7-yl]-N-[(3R,4S)-4-fluoro-1-(2-fluoro-2-methylpropanoyl)pyrrolidin-3-yl]-2,6-dimethylpyridine-3-carboxamide], the IC50 came out at 0.209 µM.
On to `Cc1cc(F)c(-c2cc(C(F)(F)F)c3c(N)ncnn23)cc1C(=O)N[C@@H]1CN(C(=O)C(C)(C)C(F)(F)F)C[C@@H]1F` [Example 806, 5-[4-amino-5-(trifluoromethyl)pyrrolo[2,1-f][1,2,4]triazin-7-yl]-4-fluoro-N-[(3R,4S)-4-fluoro-1-(3,3,3-trifluoro-2,2-dimethylpropanoyl)pyrrolidin-3-yl]-2-methylbenzamide], for which the 50% inhibitory concentration (IC50) amounted to 0.0029 µM.
Next, `COc1ncc(-c2cc(CN3CCOCC3)c3c(N)ncnn23)cc1C(=O)N[C@@H]1CN(S(=O)(=O)CCC(F)(F)F)C[C@@H]1F` [Example 1718, 5-(4-amino-5-(morpholinomethyl)pyrrolo[2,1-f][1,2,4]triazin-7-yl)-N-((3R,4S)-4-fluoro-1-((3,3,3-trifluoropropyl)sulfonyl)pyrrolidin-3-yl)-2-methoxynicotinamide]: 0.00028 µM; `COc1ncc(-c2c(F)cc3c(N)ncnn23)cc1C(=O)N[C@@H]1CN(C(=O)C2CCC(F)(F)C2)C[C@@H]1F` (stereo partly drawn) [Example 511, 5-{4-amino-6-fluoropyrrolo[2,1-f][1,2,4]triazin-7-yl}-N-[(3R,4S)-1-(3,3-difluorocyclopentanecarbonyl)-4-fluoropyrrolidin-3-yl]-2-methoxypyridine-3-carboxamide]: 0.041 µM; `Nc1ncnn2c(-c3cc(C(=O)N[C@@H]4CN(C(=O)CC(F)(F)F)C[C@@H]4F)c(Cl)cc3F)cc(C(F)(F)F)c12` [Example 403, 5-[4-amino-5-(trifluoromethyl)pyrrolo[2,1-f][1,2,4]triazin-7-yl]-2-chloro-4-fluoro-N-[(3R,4S)-4-fluoro-1-(3,3,3-trifluoropropanoyl)pyrrolidin-3-yl]benzamide]: 0.025 µM.
As for `CC(C)(F)C(=O)N1C[C@H](F)[C@H](NC(=O)c2cc(-c3cc(C(F)(F)F)c4c(N)ncnn34)cc(F)c2CF)C1` [Example 613, 5-[4-amino-5-(trifluoromethyl)pyrrolo[2,1-f][1,2,4]triazin-7-yl]-3-fluoro-N-[(3R,4S)-4-fluoro-1-(2-fluoro-2-methylpropanoyl)pyrrolidin-3-yl]-2-(fluoromethyl)benzamide], the IC50 stood at 0.0027 µM.
As to `Nc1ncnn2c(-c3ccc(F)c(C(=O)NCCC(O)c4ccccc4)c3)cc(C(F)(F)F)c12` (stereo not drawn) [Example 245, 5-[4-amino-5-(trifluoromethyl)pyrrolo[2,1-f][1,2,4]triazin-7-yl]-2-fluoro-N-(3-hydroxy-3-phenylpropyl)benzamide], the IC50 is 0.16 µM.
`C[C@@](O)(C(=O)N1C[C@H](F)[C@H](NC(=O)c2cc(-c3cc(CN4CC(F)(F)C4)c4c(N)ncnn34)c(F)cc2Cl)C1)C(F)(F)F` [Example 1313, 5-{4-amino-5-[(3,3-difluoroazetidin-1-yl)methyl]pyrrolo[2,1-f][1,2,4]-triazin-7-yl}-2-chloro-4-fluoro-N-[(3R,4S)-4-fluoro-1-[(2R)-3,3,3-trifluoro-2-hydroxy-2-methyl-propanoyl]pyrrolidin-3-yl]benzamide]: the IC50 is 0.0013 µM.
In the case of `COc1ncc(-c2cc(C(F)(F)F)c3c(N)ncnn23)cc1C(=O)Nc1cn(C(C)c2ccc(F)cc2)cn1` (stereo not drawn) [Example 1774, 5-(4-amino-5-(trifluoromethyl)pyrrolo[2,1-f][1,2,4]triazin-7-yl)-N-(1-(1-(4-fluorophenyl)ethyl)-1H-imidazol-4-yl)-2-methoxynicotinamide] it was 0.0027 µM; in that of `COc1ccc(-c2cc(C(F)(F)F)c3c(N)ncnn23)cc1C(=O)N[C@@H]1CN(C(=O)C2CC(F)C2)C[C@@H]1F` (stereo partly drawn) [Example 1133, 5-[4-amino-5-(trifluoromethyl)pyrrolo[2,1-f][1,2,4]triazin-7-yl]-N-[(3R,4S)-4-fluoro-1-(3-fluorocyclobutanecarbonyl)pyrrolidin-3-yl]-2-methoxybenzamide], 0.0095 µM.
